Paper PMC4336329 (PLoS ONE, 2015)
The campaign covered roughly 310,000 compounds. About 2,200 (0.71%) showed an effect of 50% or more. Effects have a minus sign here. The list shows a part of the results.

molecular target: human ether-à-go-go-related gene (hERG) potassium channel (human, UniProt Q12809); experiment: primary screen, population patch clamp on CHO cells stably expressing hERG
Sequence (Q12809 whole entry, looked up): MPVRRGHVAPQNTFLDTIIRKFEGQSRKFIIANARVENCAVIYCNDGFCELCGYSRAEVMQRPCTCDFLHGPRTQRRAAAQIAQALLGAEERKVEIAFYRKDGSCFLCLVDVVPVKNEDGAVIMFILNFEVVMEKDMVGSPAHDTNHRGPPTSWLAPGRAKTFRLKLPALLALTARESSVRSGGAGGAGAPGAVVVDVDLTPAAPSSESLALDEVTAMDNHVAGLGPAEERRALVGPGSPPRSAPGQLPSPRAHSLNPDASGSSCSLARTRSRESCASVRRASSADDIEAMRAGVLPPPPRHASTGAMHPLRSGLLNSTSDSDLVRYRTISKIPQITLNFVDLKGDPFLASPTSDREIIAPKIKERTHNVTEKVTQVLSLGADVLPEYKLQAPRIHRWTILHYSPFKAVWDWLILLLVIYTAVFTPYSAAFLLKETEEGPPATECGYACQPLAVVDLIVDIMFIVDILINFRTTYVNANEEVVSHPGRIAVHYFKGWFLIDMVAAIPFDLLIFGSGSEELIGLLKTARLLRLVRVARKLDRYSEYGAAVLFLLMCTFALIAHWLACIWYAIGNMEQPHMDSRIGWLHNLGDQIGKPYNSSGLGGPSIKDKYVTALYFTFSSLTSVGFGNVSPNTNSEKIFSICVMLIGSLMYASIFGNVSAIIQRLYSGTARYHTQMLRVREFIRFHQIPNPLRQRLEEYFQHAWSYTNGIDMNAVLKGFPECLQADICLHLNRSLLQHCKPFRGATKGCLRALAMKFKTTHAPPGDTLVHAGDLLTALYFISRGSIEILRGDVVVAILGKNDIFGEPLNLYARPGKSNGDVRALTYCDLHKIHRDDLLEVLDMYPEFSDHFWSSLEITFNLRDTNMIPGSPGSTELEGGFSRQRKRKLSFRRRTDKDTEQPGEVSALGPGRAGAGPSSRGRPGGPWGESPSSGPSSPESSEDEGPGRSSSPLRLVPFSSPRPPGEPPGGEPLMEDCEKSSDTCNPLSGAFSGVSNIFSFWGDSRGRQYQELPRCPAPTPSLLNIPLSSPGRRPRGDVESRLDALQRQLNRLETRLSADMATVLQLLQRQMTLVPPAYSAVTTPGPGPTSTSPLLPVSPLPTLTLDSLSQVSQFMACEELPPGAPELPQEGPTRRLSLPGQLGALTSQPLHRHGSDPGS

Compound	hERG current change (%, negative = inhibition) at 1uM [%]
CCOc1ccccc1N(CC(=O)OC)S(C)(=O)=O	11.4
Nc1nc(Br)c2ccccc2c1-c1ccc(F)cc1	-4.11
Cc1nnc(NC(=O)c2ccc(C)c(S(=O)(=O)N3CCCCCC3)c2)s1	18.4
O=S(=O)(c1ccc(Cl)cc1)N1CCC2(CC1)CO2	4.61
Cc1cc(NC(c2ccc(Cl)cc2)c2ccc3cccnc3c2O)no1 (stereo not shown)	6.49
O=C(c1cn(CC(=O)N2CCCCC2)c2ccccc12)C1CC1	17.5
CCn1ccnc1C(O)c1cccc(OC)c1OC (stereo not shown)	12.8
C=CCNC(=S)Nc1ccccc1	-4.74
O=C(CCOc1ccccc1F)N1CCN(c2ccccc2O)CC1	7.54
COc1cc(-c2nnc(SC(C)C(=O)Nc3c(C)n(C)n(-c4ccccc4)c3=O)o2)cc(OC)c1OC (stereo not shown)	-4.78
CCN(CC)CCNC(=O)c1sc2nc(-c3ccccc3)cn2c1C	-31.8
Cc1ncc(CN2CCCC(C(=O)c3ccc(C(C)(C)C)cc3)C2)s1 (stereo not shown)	-43.4
COc1cccc(CNC(=O)CCCSc2ccccc2)c1	8.06
NC(=O)C1CCN(CC(=O)Nc2cc(Cl)ccc2Oc2ccccc2)CC1	-42.9
O=C1OCCC1Sc1nnc(-c2ccc3c(c2)OCO3)o1 (stereo not shown)	13.8
COCCN(C(=O)Nc1ccc(OC)cc1OC)C1CCN(C(C)=O)CC1	3.49
O=C(Cn1cnc2sc3c(c2c1=O)CCCC3)NCCC(=O)N1CCC2(CC1)OCCO2	-7.36
O=C(Nc1c2c(nn1-c1ccccc1)CS(=O)(=O)C2)c1ccco1	-5.68
O=C(Nc1ccc(Cl)cc1F)c1cc(S(=O)(=O)N2CCCCC2)ccc1F	3.14
O=C(Nc1ccc(F)cc1)N1CCC(c2nc3c(nnn3Cc3cccc(Cl)c3)c(=O)[nH]2)CC1	-2.86
COc1ccc(S(=O)(=O)N(C)CC(=O)N2CCN(C)CC2)cc1Cl	8.72
CC(C)c1ccc(N(C(=O)c2ccc3c(c2)OCO3)C2C=CS(=O)(=O)C2)cc1 (stereo not shown)	-26.8

Compound	hERG current change (%, negative = inhibition) at 1uM [%]
CC(=O)/C(C#N)=C1\NC(=O)C(Cc2ccc(F)cc2)S1 (stereo not shown)	17.3
CCc1c(C)sc2nc3c(C(=O)N4CCOCC4)cc(C(=O)c4cc(F)ccc4O)cn3c(=O)c12	15
O=C(NCCCc1ccccc1)c1cccc(S(=O)(=O)N2CCOCC2)c1	0.916
CC1CCCC(C)N1CCCNC(=O)C1CCCN(c2ncnc3c2nc2n3CCCCC2)C1 (stereo not shown)	8.89
CCCCNC(=O)C1CCN(C(=O)Nc2ccc(C)cc2)CC1	14.7
CCOc1ccc(/C=N/NC(=O)CCC(=O)Nc2ccc(F)cc2)cc1	14.9
O=c1oc2c(CN3CCCCC3)c(O)ccc2c2c1CCCCC2	-16.5
Cc1cc2nc(-c3ccncc3)cc(C(F)(F)F)n2n1	0.682
CCCCn1c(N)c(N(CCC(C)C)C(=O)C2CC(=O)N(Cc3ccc(C)cc3)C2)c(=O)[nH]c1=O (stereo not shown)	16.8
COc1ccc(OCCSc2nc(N)cc(N)n2)cc1	-5.65
COCc1[nH]nc2c1C(c1ccnc3ccccc13)C(C#N)=C(N)O2 (stereo not shown)	8
COc1ccc(CCC(=O)NC(C)c2ccccc2)cc1OC (stereo not shown)	6.3
O=C(CCCN1C(=O)/C(=C/c2cccc(Br)c2)SC1=S)Nc1cccnc1	16.7
N#Cc1cc(N)ccc1-n1cccc1	10.5
O=C(COC(=O)c1ccc(S(=O)(=O)N2CCOCC2)cc1)NCc1cccs1	8.84
COc1cc(/C=N/NC(=O)c2ccncc2)ccc1OC(=O)c1ccccc1Cl	-24.3
COc1cc(/C=C2\CCCc3c2nc2ccccc2c3C(=O)O)cc(OC)c1O	7.67
Cc1ccc(C(=O)NNC(=O)c2ccc(-n3cncn3)c([N+](=O)[O-])c2)cc1	13.3
CC(C)(C)n1ncc2c(=O)n(CC(=O)NCc3ccccc3)cnc21	15.4
Cc1c(O[C@@H]2O[C@H](CO)[C@@H](O)[C@H](O)[C@H]2O)ccc2c1oc(=O)c1ccccc12	16.9
Cc1ccc(NC(=O)c2ccccc2[N+](=O)[O-])nc1	4.35
